The structures appear in SMILES notation. Hit rate of the full screen: of about 310,000 compounds, about 14,000 (4.5%) showed an effect of 50% or more. The effect is printed as a negative number. This is one part of the list.
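Note: peak tail current of the secondary pulse compared with the same well before compound.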

Chain of human ether-à-go-go-related gene (hERG) potassium channel (Q12809 whole entry, looked up): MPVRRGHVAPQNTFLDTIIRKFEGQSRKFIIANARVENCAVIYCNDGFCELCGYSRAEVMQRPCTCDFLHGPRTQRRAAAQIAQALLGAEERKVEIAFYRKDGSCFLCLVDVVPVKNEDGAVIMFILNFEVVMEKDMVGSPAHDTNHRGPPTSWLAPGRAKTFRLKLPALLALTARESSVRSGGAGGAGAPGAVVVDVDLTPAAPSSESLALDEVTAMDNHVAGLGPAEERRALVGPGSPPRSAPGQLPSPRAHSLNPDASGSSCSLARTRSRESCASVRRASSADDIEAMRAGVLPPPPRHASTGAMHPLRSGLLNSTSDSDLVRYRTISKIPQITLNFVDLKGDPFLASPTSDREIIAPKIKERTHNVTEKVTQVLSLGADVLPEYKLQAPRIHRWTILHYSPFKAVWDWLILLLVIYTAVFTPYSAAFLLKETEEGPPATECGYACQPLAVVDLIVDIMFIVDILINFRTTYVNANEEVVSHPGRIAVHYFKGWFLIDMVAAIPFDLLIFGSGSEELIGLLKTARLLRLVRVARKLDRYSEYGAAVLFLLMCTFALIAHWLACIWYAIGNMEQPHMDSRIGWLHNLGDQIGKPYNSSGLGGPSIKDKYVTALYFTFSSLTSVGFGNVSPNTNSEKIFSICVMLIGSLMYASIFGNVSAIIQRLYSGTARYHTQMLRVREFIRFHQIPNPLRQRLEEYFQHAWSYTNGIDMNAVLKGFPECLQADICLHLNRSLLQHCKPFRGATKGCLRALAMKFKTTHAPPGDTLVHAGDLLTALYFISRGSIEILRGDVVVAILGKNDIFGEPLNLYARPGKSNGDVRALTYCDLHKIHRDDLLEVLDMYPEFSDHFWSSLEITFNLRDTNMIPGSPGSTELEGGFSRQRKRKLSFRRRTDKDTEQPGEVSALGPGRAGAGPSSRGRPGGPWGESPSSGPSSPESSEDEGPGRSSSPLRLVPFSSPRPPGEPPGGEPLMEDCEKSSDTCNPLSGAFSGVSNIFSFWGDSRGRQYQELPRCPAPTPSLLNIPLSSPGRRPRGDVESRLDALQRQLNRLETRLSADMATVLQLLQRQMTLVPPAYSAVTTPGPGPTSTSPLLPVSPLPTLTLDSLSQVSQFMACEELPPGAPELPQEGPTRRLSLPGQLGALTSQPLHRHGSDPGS

The test has as its target human ether-à-go-go-related gene (hERG) potassium channel (human, UniProt Q12809). Nature of the test: primary screen, population patch clamp on CHO cells stably expressing hERG.
Take `CCC(=O)NCC(c1ccco1)N1CCN(c2ccc(OC)cc2)CC1` (stereo not drawn): the “hERG current change (%, negative = inhibition) at 10uM” value was 21.2%.
As for `Br.CCn1c2c(c(=N)c3ccccc31)CCC2`, the figure is 5.12%; as for `Cc1nc(NC(=O)CN(C)S(=O)(=O)c2ccc(Br)cc2)sc1C`, -9.45%.
Take `O/N=C1\CCC\C1=C/c1ccco1`: the “hERG current change (%, negative = inhibition) at 10uM” value is on record as -2.24%.
The same measure for `Fc1ccc2nc3n(c2c1F)CCCCCC3`: 7.97%; for `CCOc1c2ccccc2nn1CCO`: 17.5%; for `CCOC(=O)N1CCN(C(=O)COc2ccccc2[N+](=O)[O-])CC1`: 19.1%.
The same measure for `O=C(Nc1ccncc1)c1cccc2ccccc12`: 5.23%; for `Cc1ccc(N2C(=O)CC(N(CCc3ccccc3)C(=S)Nc3ccc(N(C)C)cc3)C2=O)cc1` (stereo not drawn): 10.3%; for `Nc1nc(Nc2ccccc2)nc2c1ncn2[C@@H]1O[C@H](CO)[C@@H](O)[C@H]1O`: 2.99%.
`COc1ccccc1NC(=O)Nc1nc(CC(=O)Nc2ccc(F)c(F)c2)cs1`: the “hERG current change (%, negative = inhibition) at 10uM” value is -2.04%.
For the molecule `CN(C(=O)COc1cc(C(F)(F)F)nn1C)c1ccccc1`, the “hERG current change (%, negative = inhibition) at 10uM” value is 88.5%.
In the case of `COc1c(CC=C(C)C)cc(C2CC(=O)c3c(O)cc(O)cc3O2)c(CC=C(C)C)c1O` (stereo not drawn), the “hERG current change (%, negative = inhibition) at 10uM” value stood at 1.13%.
The same measure for `O=C(Cc1ccc(S(=O)(=O)N2CCCC2)s1)N1CCOCC1`: -0.493%; for `O=C(CSc1nnc(C2CCCCC2)o1)Nc1ccccc1Cl`: -11.5%; for `O=C(CC1SC(=O)NC1=O)Nc1ccc(Cl)cc1` (stereo not drawn): 21.2%.
With `COC(=O)Cc1cc(C)cc2c(=O)cc(-c3ccoc3)oc12`, the “hERG current change (%, negative = inhibition) at 10uM” value is given as 3.25%.
Take `COc1ccc(C2=NOC(Cn3nc(C(=O)NCc4cccs4)cc3-c3ccccc3)C2)cc1` (stereo not drawn): the “hERG current change (%, negative = inhibition) at 10uM” value is -51.3%.
`O=C(Nc1ccc2c(c1)OCCO2)c1cccc(Cl)c1`: the “hERG current change (%, negative = inhibition) at 10uM” value was determined as 10.6%.
As for `CCOC(=O)c1c(NC(=O)C(=O)N/N=C/c2ccccc2O)sc2c1CCCCC2`, the figure is 8.65%.
Turning to `COc1cc(CCC(=O)NCc2ccc(Cl)cc2)cc(OC)c1OC`, the “hERG current change (%, negative = inhibition) at 10uM” value came out at 3.18%.
On to `Cc1cc(NC(=O)CSCC(=O)N(c2ccc(F)cc2)C(C(=O)NC2CCCCC2)c2ccc(O)c(O)c2)no1` (stereo not drawn), for which the “hERG current change (%, negative = inhibition) at 10uM” value is on record as -9.11%.
Consider `COc1ccc2c(CC(=O)NC3CCCc4ccccc43)coc2c1` (stereo not drawn), for which the “hERG current change (%, negative = inhibition) at 10uM” value was -9.56%.
The same measure for `O=C(N/N=C/c1ccoc1)c1ccccc1F`: 16.1%.
On to `O=C(COC(=O)c1cc(Cl)ccc1O)Nc1ccc2c(c1)OCCO2`, for which the “hERG current change (%, negative = inhibition) at 10uM” value amounted to 7.8%.
The same measure for `CCCCC(=O)N1CC2(C)CN(C(=O)CCCC)CC(C)(C1)C2=O`: -27.4%.
The same measure for `Cc1nn(Cc2ccc(Cl)cc2)c(C)c1NC(=O)c1noc2c1CCc1ccccc1-2`: -9.78%; for `COc1cc(C(=O)Nc2sc3c(c2C(=O)O)CCC(C)C3)cc(OC)c1OC` (stereo not drawn): 18.9%.
Consider `Cc1ccc(/C=N/NC(=O)c2ccncc2)s1`, for which the “hERG current change (%, negative = inhibition) at 10uM” value is given as 19.7%.
Consider `NC(=O)CC1SC(N)=NC1=O` (stereo not drawn), for which the “hERG current change (%, negative = inhibition) at 10uM” value is on record as -12.4%.
Take `CC(C)Cn1cc(C(=O)N2CCOCC2)c2c3ccccc3n(C)c2c1=O`: the “hERG current change (%, negative = inhibition) at 10uM” value is on record as -39.4%.
The same measure for `CC(C)CN1C(=O)C(=O)N(CC(=O)N(C)CC(=O)Nc2ccc(Cl)c(C(F)(F)F)c2)C1=O`: -12.3%.
The same measure for `CC1CCN(C(=O)c2cc3c(=O)n4ccccc4nc3s2)CC1`: 18.7%; for `CCOC(=O)C1(CCc2ccccc2)CCN(Cc2ccn[nH]2)CC1`: -72.5%; for `Cc1ccc(-c2cc(N)nc(-c3ccccc3)c2)cc1`: 7.26%.
`Cc1ccc(CNC(=O)C(=O)c2cn(CC(=O)N3CCCC3)c3ccccc23)cc1`: the “hERG current change (%, negative = inhibition) at 10uM” value worked out at 8.02%.
As for `Cc1ccc(CN2C(=O)CSC2c2ccc(F)cc2)cc1` (stereo not drawn), the figure is -3.99%; as for `CCOC(=O)C1CCN(Cc2ccc(F)cc2F)CC1`, 6.65%.
`CCCC(=O)Nc1nnc(S(=O)(=O)N2CCCC2)s1`: the “hERG current change (%, negative = inhibition) at 10uM” value worked out at 10.3%.
As to `O=C1/C(=C\c2ccc([N+](=O)[O-])cc2)N2CCC1CC2`, the “hERG current change (%, negative = inhibition) at 10uM” value was -37.1%.
For the molecule `COc1ccc(NS(=O)(=O)c2cccc(C(=O)NNC(=O)CNC(=O)c3ccco3)c2)cc1`, the “hERG current change (%, negative = inhibition) at 10uM” value is 12.8%.
The same measure for `COc1ccc(-c2ccc(/C=C(\NC(=O)c3ccccc3)C(=O)N3CCOCC3)o2)cc1`: -24.1%; for `O=C(CCn1c2c(c3ccccc31)CCCC2)NNC(=O)c1cccc([N+](=O)[O-])c1`: -2.35%; for `O=c1o[nH]c(-c2ccccc2)c1C1=NCCCCC1`: -4.67%.
The same measure for `CCN(CC)S(=O)(=O)c1ccc(NC(=O)c2ccccc2N(C)S(C)(=O)=O)cc1`: -8.8%; for `CC(=O)NNC(=O)c1csc(-c2csc(C)n2)n1`: 6.85%; for `COc1ccc(CCNS(=O)(=O)CC23CCC(CC2=O)C3(C)C)cc1OC` (stereo not drawn): 10.6%.
Turning to `CN(CC(=O)Nc1ccc(F)c(F)c1F)C(=O)C1CC(=O)N(c2ccc3c(c2)OCCO3)C1` (stereo not drawn), the “hERG current change (%, negative = inhibition) at 10uM” value is listed as -14.4%.
The same measure for `COc1ccc(C(CC(=O)O)NC(=O)c2ccccc2)cc1OC` (stereo not drawn): -3.86%; for `CCCOc1ccc(NC(=O)CC2C(=O)N(C)C(=S)N2Cc2cccs2)cc1` (stereo not drawn): -9.24%.
As for `C/C(N)=C(/C#N)C(=O)CSc1n[nH]c(-c2cccs2)n1`, the figure is 9.72%; as for `O=C(COC(=O)c1ccc[nH]c1=O)NCC1CCCO1` (stereo not drawn), 8.98%.
The same measure for `COC(=O)COc1ccc(C(c2c(C)[nH][nH]c2=O)c2c(C)[nH][nH]c2=O)cc1`: 15.1%; for `O=S(=O)(CCc1ccccc1)/N=C/c1cccs1`: 1.21%.
Turning to `COc1cc(/C=N/NC(=O)Cn2c([N+](=O)[O-])cnc2C)ccc1OC(=O)N(C)C`, the “hERG current change (%, negative = inhibition) at 10uM” value stood at 12%.
Turning to `CCOc1ccc(NC(=O)CSc2nc3nc(C)cc(C)n3n2)cc1`, the “hERG current change (%, negative = inhibition) at 10uM” value is given as -4.89%.
The same measure for `C/C(=N\NC(=O)C1CCCN(S(=O)(=O)c2ccccc2)C1)c1ccncc1` (stereo not drawn): -26.2%; for `O=C1c2ccccc2S(=O)(=O)N1CCOc1ccc(F)cc1`: -27.6%; for `Cc1c(CCOC(=O)C23CC4CC(CC(C4)C2)C3)sc[n+]1CC#N.[Cl-]`: 6.74%.
On to `O=C(/C=C/c1ccc2c(c1)OCO2)NCCSCc1cccc(Cl)c1`, for which the “hERG current change (%, negative = inhibition) at 10uM” value is given as -14.5%.
The same measure for `Cc1nc2ccccc2c2c1C(=O)N(C)C2=O`: -24.2%; for `Cc1ccc(NC(=S)NNC(=S)Nc2ccc(C)cc2C)cc1`: 22.3%.
Take `Cc1c(Cl)c([N+](=O)[O-])nn1CCCC(=O)Nc1c(Cl)cccc1Cl`: the “hERG current change (%, negative = inhibition) at 10uM” value is recorded as -8.29%.
The same measure for `CCc1ccc2nc(N3CCN(C)CC3)c(C#N)cc2c1`: -54.3%; for `CCOC(=O)N1CCN(C(=O)c2ccc3oc(CCCc4ccccc4)nc3c2)CC1`: -47.5%.
The same measure for `COc1ccccc1C1=NCc2nnc(CSC)n2-c2ccc(Cl)cc21`: -19.1%.
The same measure for `CCOc1ccc2nc(NS(C)(=O)=O)sc2c1`: 17.8%.
Turning to `Cc1cccc(NC(=O)CN2CCC(C(=O)c3ccc4c(c3)OCCO4)CC2)c1`, the “hERG current change (%, negative = inhibition) at 10uM” value was -54.2%.
For `COC(=O)c1sc2cc([N+](=O)[O-])cc(SCC(C)C)c2c1N`, the “hERG current change (%, negative = inhibition) at 10uM” value amounted to 9.06%.
Take `Cc1cc(N2C(=O)C(O)=C(C(=O)c3ccc(C)o3)C2c2cccs2)no1` (stereo not drawn): the “hERG current change (%, negative = inhibition) at 10uM” value was 3.86%.
With `CCCCCCCCCC(=O)N1CCN(c2cc3c(cc2F)c(=O)c(C(=O)O)cn3CC)CC1`, the “hERG current change (%, negative = inhibition) at 10uM” value came to 12.2%.
As for `CCOc1ccc(N2C(=O)CC(N(Cc3ccco3)C(C)=O)C2=O)cc1` (stereo not drawn), the figure is 0.345%; as for `CCN(CC)C(=O)COc1cc(C)c(Cl)c(C)c1`, -5.91%; as for `CCC(NC(=O)c1ccccc1O)c1ccccc1` (stereo not drawn), -33.3%.
As for `N#C/C(=N\Nc1ccc(Cl)cc1)C(N)=S`, the figure is 16%.
As to `O=C(CCOc1ccccc1)NCc1ccccc1`, the “hERG current change (%, negative = inhibition) at 10uM” value is listed as -3.68%.
The same measure for `Cc1cccc2cc(CN(Cc3cccnc3)C(=O)c3ccncc3)c(=O)[nH]c12`: -12.1%.
As for `O=C(c1ccc(Cl)cc1)c1cnc(-c2ccc(Cl)cc2)s1`, the figure is -3.48%.
As to `Cc1ccc(NC(=O)COC(=O)C2CC(=O)N(Cc3ccccc3)C2)cc1F` (stereo not drawn), the “hERG current change (%, negative = inhibition) at 10uM” value turned out to be 0.175%.
Take `O=C(OCC(=O)N1CCN(C(=O)c2ccco2)CC1)c1ccccc1`: the “hERG current change (%, negative = inhibition) at 10uM” value turned out to be 10.4%.
As for `CC1(C)C(=O)Nc2ccccc2N1C(=O)COC(=O)/C=C/c1ccc(OC(F)F)cc1`, the figure is 26.4%.
The same measure for `Cc1cc2nc(SCCN3CCOCC3)[nH]c2cc1C`: 12.3%; for `COC(=O)c1ccc(-c2cc(CC3(C(=O)OC)CCN(C(=O)OC(C)(C)C)CC3)on2)cc1`: -17.9%.
As for `C[C@@H]1[C@H](O)C[C@@]23COC(=O)C2=CCCC3[C@@]1(C)CCC1COC(=O)C1` (stereo partly drawn), the “hERG current change (%, negative = inhibition) at 10uM” value is recorded as -13.4%.
The same measure for `O=C(Nc1cccc2ncccc12)c1ccccc1F`: 15.7%; for `CCCCCCc1nc2c(=O)[nH]c3ccccc3c2o1`: 12.5%; for `OCC1(CCOc2ccccc2)CCN(Cc2ccc3c(c2)OCCO3)CC1`: -75.1%.
The same measure for `N#CC1(NC(=O)COC(=O)CSc2ccc(F)cc2)CCCCC1`: 11.7%; for `O=C(O)[C@H]1CCCC[C@H]1C(=O)Nc1ccc(S(=O)(=O)N2CCOCC2)cc1`: 11.2%.
As for `Cc1ccc(NC(=O)C2CCC(CNc3c(N4CCC(C)CC4)c(=O)c3=O)CC2)cc1F` (stereo not drawn), the figure is 14.3%.

Source of the values: article PMC4336329 (PLoS ONE, 2015).
